Experimental data published in PubChem BioAssay AID463173 (ICCB-Longwood Screening Facility, Harvard Medical School, 2010).
Out of some 52,000 compounds screened, about 4,300 (8.3%) were called active. Cut-off read from the data, not from the text of the source: active = survival mostly below about 52% (no sharp cut-off); inactive = mostly above about 56%. The list shows a part of the results.

System: DeltatarO mutant
Experiment: S. aureus survival, RN4220 and DeltatarO strains – OD600, teichoic acid synthesis inhibitors, primary screen (AID 463173)
Conditions: S. aureus RN4220 wild type/DeltatarO growth, OD600, 18 h, hits give low values, screened at 18.75 µg/mL (by protocol)

| Compound | survival |
| --- | --- |
| Cn1c(=O)[nH]c2cc(-c3noc(-c4ccc(C#N)cc4)n3)ccc21 | inactive: 96% |
| Cc1cc(C)n(-c2nnc(Nc3ccc(C)c(Cl)c3)c3ccccc23)n1 | inactive: 122% |
| CCCS(=O)(=O)NCCc1sc2nc(-c3ccc(F)cc3)nn2c1C | inactive: 76% |
| O=C(NCC(c1ccco1)S(=O)(=O)c1cccs1)c1ccccc1F (configuration not stated) | inactive: 85% |
| COc1cccc(CNc2cc(C)nc3nc(-c4ccc(C)cc4)nn23)c1 | inactive: 73% |
| COc1ccc(C2c3c(n(C)c4ccccc34)C(=O)N2CC(=O)Nc2cccc(F)c2)cc1 (configuration not stated) | inactive: 77% |
| CCCc1cc(=O)[nH]c2nnc(SCC)n12 | inactive: 95% |
| Cc1ccc(N2CC(C)Cn3c2nc2c3c(=O)n(Cc3cccc(Cl)c3)c(=O)n2C)cc1 (configuration not stated) | inactive: 46% |
| COc1ccc(NC(=O)c2oc3ccc(S(=O)(=O)N4CCOCC4)cc3c2C)cc1 | inactive: 116% |
| COc1cc(C2C(=O)N(C3CCCCCC3)CC(=O)N2CCc2ccccc2)ccc1OC(C)C (configuration not stated) | inactive: 85% |
| Cc1ccc(C)c(-n2c(N)c(C#N)c3nc4ccccc4nc32)c1 | inactive: 153% |
| O=C(NC1(C(F)(F)F)NC(=O)N(CCc2ccccc2)C1=O)c1ccc(Cl)cc1 (configuration not stated) | inactive: 58% |
| Oc1c(C(c2ccccc2)N2CCC(O)CC2)sc2nc(-c3ccco3)nn12 (configuration not stated) | inactive: 71% |
| Cn1c(=O)c2c(nc(Sc3nc4ccccc4n3CC(=O)N3CCCCC3)n2C)n(C)c1=O | inactive: 114% |
| Cc1ccc(-n2nc3c(=O)n(C(C)C(=O)NCc4ccco4)nc(C)c3c2C)cc1 (configuration not stated) | active: 47% |
| Cc1ccc(C)c(NC(=O)c2ccc(CN3CC(=O)N4CCCCC4C3=O)cc2)c1 (configuration not stated) | inactive: 54% |
| CC(=O)Nc1ccc(NC(=O)c2ccc3c(c2)N(Cc2cccc(Cl)c2)C(=O)c2ccccc2S3(=O)=O)cc1 | inactive: 104% |
| CCOC(=O)C(C)Sc1ccc2nnc(CCNS(=O)(=O)c3ccccc3)n2n1 (configuration not stated) | inactive: 79% |
| COc1ccc(Nc2c3c(nc4ccc(NC(=O)c5ccc(F)cc5)cc24)CCCC3)cc1OC | inactive: 106% |

| Compound | survival |
| --- | --- |
| CC1N=C2c3ccccc3N=C(SCC(=O)NCCc3ccccc3)N2C1=O (configuration not stated) | active: 52% |
| CN(Cc1ccccc1)C(=O)c1nc(-c2ccc(Cl)cc2)n2c1CCCCC2 | inactive: 75% |
| CCOc1ccc(CCNC(=O)c2cnc3sc(N4CCCC4)nn3c2=O)cc1 | inactive: 90% |
| CC1CC(C)CN(C(=O)CNCc2ccco2)C1 (configuration not stated) | inactive: 83% |
| CCCCOc1cccc(C(=O)N(Cc2ccc(C)o2)c2ccccn2)c1 | inactive: 65% |
| CN(C)S(=O)(=O)c1ccc(S(=O)(=O)N2CCC(O)CC2)cc1 | inactive: 98% |
| COc1ccc(S(=O)(=O)Nc2cc(S(=O)(=O)c3ccccc3)c(O)c(C)c2C)cc1 | inactive: 78% |
| Cc1ccc(C(C)C)c(OC(C)C(=O)NCC2(N(C)C)CCCCC2)c1 (configuration not stated) | inactive: 106% |
| Cc1ccccc1CN1C(=O)c2ccccc2S(=O)(=O)c2ccc(C(=O)OCC3CCCO3)cc21 (configuration not stated) | inactive: 71% |
| CC(NC(=O)CN1C(=O)c2cccnc2Oc2ccc(Cl)cc21)c1ccccc1 (configuration not stated) | inactive: 71% |
| Cc1cc(OC(C)C(=O)Nc2sc3c(c2C(N)=O)CCCC3)ccc1Cl (configuration not stated) | inactive: 59% |
| CN(C)S(=O)(=O)c1ccc(S(=O)(=O)N(C)CC2COc3ccccc3O2)cc1 (configuration not stated) | inactive: 80% |
| COc1ccc(-c2cc3ccc(O)c(CN4CCC(C)CC4)c3oc2=O)cc1OC | active: 52% |
| COCCn1nnnc1C(C(C)C)N1CCN(C(=O)c2ccco2)CC1 (configuration not stated) | inactive: 103% |
| COc1cc(-c2nnc(SCCOc3cc(C)cc(C)c3)o2)cc(OC)c1OC | inactive: 109% |
| Cc1noc(C)c1S(=O)(=O)N1CCC(C(=O)N2CCN(c3cccc(C(F)(F)F)c3)CC2)CC1 | inactive: 95% |
| CC(C)NC(=O)CCC(=O)N1Cc2ccccc2Oc2ncccc21 | active: 0% |
| CCOC(=O)c1c(C)[nH]c(CCC(=O)Nc2ccc(OC)c(OC)c2)c1C | inactive: 91% |
| C=Cn1c(=N)n(C)c2ccccc21 | inactive: 70% |

| Compound | survival |
| --- | --- |
| CCC1CCCCN1C(=O)CSc1nc2c([nH]c3ccccc32)c(=O)n1-c1ccc(OC)cc1 (configuration not stated) | active: 25% |
| Cc1nc(N2CCCCC2)c(C#N)c2c1COC(C)(C)C2 | inactive: 81% |
| COc1ccccc1NC(=O)CCN1CC(C)CC(C)C1 (configuration not stated) | inactive: 61% |
| Cc1ccc(Cn2c(C(C)NC(=O)c3ccccc3)nc3ccccc32)cc1 (configuration not stated) | inactive: 90% |
| O=C(NCCCN1CCN(c2ccccc2)CC1)c1ccc2nc(Cc3ccccc3)oc2c1 | inactive: 92% |
| COCCCNC(=O)CCC(=O)NNc1nc2ccccc2c2nc(C)nn12 | inactive: 90% |
| COc1ccc(N2CC(NC(=O)C(c3ccccc3)c3ccccc3)CC2=O)cc1OC (configuration not stated) | inactive: 90% |
| CC(C)Oc1ccc(-c2nc3c(C#N)c[nH]n3c2NC2CCCCC2)cc1 | inactive: 58% |
| CC1Cc2ccccc2N1S(=O)(=O)c1nnc(NC(=O)c2ccccc2)s1 (configuration not stated) | active: 12% |
| COC(=O)c1nnn(CC(=O)NC(=O)Nc2c(C)cccc2C)c1C(=O)OC | inactive: 85% |
| COc1ccc(C2CC(=O)c3cc(-c4nc(-c5ccc(Cl)cc5)cs4)c(=O)[nH]c3C2)cc1OC (configuration not stated) | inactive: 59% |
| Cc1ccccc1C(=O)n1nc(-c2cccnc2)nc1NCc1ccccc1 | inactive: 75% |
| CCCCN(CC)CCCNC(=O)c1nn(C)c2c1CSc1ccccc1-2 | inactive: 99% |
| COc1ccc(OC)c(CCNC(=O)Cn2ncc3c([nH]c4ccccc43)c2=O)c1 | inactive: 99% |
| NS(=O)(=O)c1ccc(NC(=O)C2Cc3ccccc3N2C(=O)c2ccccc2)cc1 (configuration not stated) | inactive: 68% |
| CCn1cc(C(=O)N2CCN(c3cccc(C)c3C)CC2)c2cc(OC)c(OC)cc2c1=O | inactive: 180% |
| CCn1cc2nc(SCC(=O)Nc3ccccc3C(F)(F)F)n(Cc3ccc(C)cc3)c(=O)c2n1 | inactive: 105% |
| CC(C)Oc1ccc(C(=O)N(Cc2ccco2)Cc2cccs2)cc1 | active: 36% |
| Cc1cc(OCC(=O)N(Cc2ccc(N(C)C)cc2)CC2CCCO2)ccc1Cl (configuration not stated) | inactive: 58% |
